# Measurements reported in PubChem BioAssay (NCATS).
# Values joined by “and” are separate entries in the source; they are usually repeats but may differ in a detail not shown here. Equal entries are not always repeated. Inconclusive results, whose numbers are uncertain, are shown with a selection of clear calls. Where the call is inconclusive, the potency comes from a doubtful curve fit. Active and inactive are the calls of the source. Unless noted, the call rests on the fitted dose curve; in most records, active means well fitted curve in the direction sought with a large enough effect; inconclusive means small, poorly fitted or top-dose-only effect, or another doubt; inactive means no such curve, though single readings can be large; an effect the other way counts as inactive or inconclusive.
# Biological target: Cytochrome P450 2C9 (Homo sapiens) (UniProt P11712)
# Assay: Cytochrome P450 family 2 subfamily C member 9 (CYP2C9) small molecule antagonists: luciferase biochemical (cell-free) qHTS assay (AID 1645842; active means well fitted curve in the direction sought with a large enough effect in the repeat runs; inconclusive means weak or mixed curves; inactive means no such curve, though single readings can be large; an effect the other way counts as inactive or inconclusive; further: nearly all actives have a fitted effect of over 55% in size)
# Conditions: P450-Glo CYP2C9 enzyme assay, luciferin luminescence; series mostly up to 57.4 µM; activity change, negative = inhibition: at the top concentration
# How it was run: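 Luminescence, after 20 min with luciferin detection reagent, reflected CYP2C9 turnover during a 1 h NADPH-driven reaction at 37C. Enzyme-substrate mix contained 0.4% bovine serum albumin and was preincubated with compound 10 min at room temperature.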
# On the % scale 0 is the no-effect control and ±100 the full control effect; potency means the concentration at half of the fitted maximal effect; tags describe the fitted curve by direction and shape.
# Sequence of UniProt P11712 (P11712 whole entry, looked up): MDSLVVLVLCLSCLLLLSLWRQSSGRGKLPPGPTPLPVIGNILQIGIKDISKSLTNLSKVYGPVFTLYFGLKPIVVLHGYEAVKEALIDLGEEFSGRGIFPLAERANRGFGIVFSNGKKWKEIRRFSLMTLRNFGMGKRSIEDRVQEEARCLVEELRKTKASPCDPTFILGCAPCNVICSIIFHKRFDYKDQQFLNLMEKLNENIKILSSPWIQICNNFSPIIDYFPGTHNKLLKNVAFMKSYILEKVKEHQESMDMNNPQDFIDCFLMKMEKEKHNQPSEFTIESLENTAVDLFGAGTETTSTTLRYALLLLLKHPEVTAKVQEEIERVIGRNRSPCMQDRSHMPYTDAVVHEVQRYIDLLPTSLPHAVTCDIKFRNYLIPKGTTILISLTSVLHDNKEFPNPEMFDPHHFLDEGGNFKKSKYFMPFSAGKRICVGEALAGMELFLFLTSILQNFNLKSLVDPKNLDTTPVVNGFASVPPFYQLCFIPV
SMILES,Potency,"activity change, negative = inhibition"
Cc1c(C(=O)O)c(O)cc2c1C(=O)c1c(O)c([C@@H]3O[C@H](CO)[C@@H](O)[C@H](O)[C@H]3O)c(O)c(O)c1C2=O,"inconclusive: 21.9 µM [inhibitor, single point]",
Oc1ccc(O)cc1,,inactive: 1.58%
COc1cc(C(=S)N2CCOCC2)ccc1O,,inactive: 24.3%
NC(=O)N/N=C/c1ccc([N+](=O)[O-])o1,"inconclusive: 44.8 µM [inhibitor, partial curve, poor fit]",

# System: not listed separately
# Assay: Primary qHTS for inhibitors of nuclear receptor binding SET domain protein 2 (NSD2) in an isogenic RCH-ACV NSD2 p.E1099K mutant (9B) (AID 1645876); further: nearly all actives have a fitted effect of over 70% in size
# Conditions: RCH-ACV (leukaemia line) NSD2 E1099K (9B) viability, CellTiter-Glo, 72 h; series mostly up to 44.9 µM; activity change, negative = viability loss: at the top concentration
SMILES,Potency,"activity change, negative = viability loss",outcome
S=c1[nH]c2ccccc2s1,"inconclusive: 19.3 µM [inhibitor, partial curve]",,
Cc1ccc2c(n1)Oc1ccc(C(C)C(=O)OCC(=O)N(C)C)cc1C2 (stereo not drawn),"inconclusive: 29.9 µM [inhibitor, single point]",,
COc1ccc(-c2cc(=S)ss2)cc1,,inactive: -25.2%,
CCCC(=O)OC[C@@H](OC(=O)CCC)[C@@H](OC(=O)CCC)[C@H](Cn1c2nc(=O)[nH]c(=O)c-2nc2cc(C)c(C)cc21)OC(=O)CCC,"inconclusive: 13.3 µM [inhibitor, partial curve]",,
Cc1ccnc2c1NC(=O)c1cccnc1N2C1CC1,"inconclusive: 23.7 µM [inhibitor, single point]",,
CCC[C@@H]1C[C@@H](C(=O)N[C@@H]([C@H]2O[C@H](SC)[C@H](O)[C@@H](O)[C@H]2O)[C@@H](C)O)N(C)C1,"inconclusive: 23.7 µM [inhibitor, single point]",,
CC(=O)Oc1cc2c(s1)CCN(C(C(=O)C1CC1)c1ccccc1F)C2 (stereo not drawn),"inconclusive: 33.5 µM [inhibitor, single point]",,
C#CC1(O)CC[C@H]2[C@@H]3CCC4=CCCC[C@@H]4[C@H]3CC[C@@]21C (stereo partly drawn),"inconclusive: 33.5 µM [inhibitor, single point]",,
O=C(O)CCC(=O)c1ccc(-c2ccccc2)cc1,,,inactive
O=C1c2ccccc2C(=O)c2c1ccc(O)c2O,"inconclusive: 21.1 µM [inhibitor, single point]",,
O[C@@H](COc1cccc2ncccc12)CN1CCN(C2c3ccccc3[C@@H]3[C@H](c4ccccc42)C3(F)F)CC1 (stereo partly drawn),"inconclusive: 29 µM [inhibitor, single point]",,
Cc1ccc(C)c(OCCCC(C)(C)C(=O)O)c1,"inconclusive: 18.8 µM [inhibitor, single point] and inactive",,
CC1=C(CC(=O)O)c2cc(F)ccc2/C1=C\c1ccc(S(C)=O)cc1 (stereo not drawn),"inconclusive: 33.5 µM [inhibitor, single point]",,
CC(=O)SCC(CC(=O)c1ccc(C)cc1)C(=O)O (stereo not drawn),"inconclusive: 33.5 µM [inhibitor, single point]",,
CC(=C(CCOC(=O)C(C)C)SSC(CCOC(=O)C(C)C)=C(C)N(C=O)Cc1cnc(C)nc1N)N(C=O)Cc1cnc(C)nc1N,"inconclusive: 29.9 µM [inhibitor, single point]",,
Cc1cc(O)c2ccccc2c1O,"inconclusive: 23.7 µM [inhibitor, single point]",,
CCOc1ccc2nc(S(N)(=O)=O)sc2c1,"inconclusive: 33.5 µM [inhibitor, single point]",,
Cc1cc(C)c(/C=C2\C(=O)Nc3ccccc32)[nH]1,"inconclusive: 29.9 µM [inhibitor, single point] and inconclusive: 29.1 µM [inhibitor, single point]",,
C=C(c1ccc(C(=O)O)cc1)c1cc2c(cc1C)C(C)(C)CCC2(C)C,"inconclusive: 31.6 µM [inhibitor, single point]",,
CC(C)C(=O)Nc1ccc([N+](=O)[O-])c(C(F)(F)F)c1,"inconclusive: 2.99 µM [inhibitor, single point] and inconclusive: 33.2 µM [inhibitor, partial curve, poor fit]",,
C=Cc1c(C)c2cc3[nH]c(cc4nc(cc5nc(cc1[nH]2)C(C)=C5CCC(=O)O)C(CCC(=O)O)=C4C)c(C)c3C=C,"inconclusive: 21.1 µM [inhibitor, single point]",,
Cc1[nH]c(=O)c(C#N)cc1-c1ccncc1,inactive,,
C[C@H](NC(=O)c1sccc1OCc1ccc(Cl)cc1)c1ccccc1,"inconclusive: 18.6 µM [inhibitor, partial curve]",,
Cc1ccc(N)cc1O,"inconclusive: 43.3 µM [inhibitor, single point]",,
